# This is one part of the list. Single values are uncertain, as repeats are few or missing.
# Tests used:
# [1] = test system: IMR-32; experiment: drug sensitivity score (DSS), single drug with vehicle (DSS (score)); higher = more cytotoxic; extreme values may be limits of the assay; conditions: 72 h; co-treatment: vehicle (DMSO)
# [2] = test system: SK-N-AS; experiment: as above; conditions: 72 h; co-treatment: vehicle (DMSO)
# [3] = test system: SK-N-AS; experiment: drug sensitivity score (DSS) in combination with SL-176 (DSS (score)); higher = more cytotoxic; extreme values may be limits of the assay; conditions: 72 h; co-treatment: SL-176 11.2 uM (IC25 in IMR-32)
# [4] = test system: IMR-32; experiment: as above; conditions: 72 h; co-treatment: SL-176 11.2 uM (IC25 in IMR-32)
# [5] = test system: SK-N-AS; experiment: drug sensitivity score (DSS) in combination with GSK2830371 (DSS (score)); neuroblastoma lines; SL-176 and GSK2830371 are WIP1 inhibitors; higher = more cytotoxic; extreme values may be limits of the assay; conditions: 72 h; co-treatment: GSK2830371 at IC25 in IMR-32
# [6] = test system: IMR-32; experiment: as above; conditions: 72 h; co-treatment: GSK2830371 at IC25 in IMR-32
# 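Wherever drug sensitivity score (DSS) in combination with GSK2830371 is given: neuroblastoma cells in 384-well plates, each compound at five concentrations, luminescence read-out, DSS derived from fitted concentration-response curve combining IC50 with minimum and maximum inhibition.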
# 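Wherever drug sensitivity score (DSS) in combination with SL-176 is given: cells in 384-well plates, luminescence read-out, each screening drug at five concentrations, DSS derived from the fitted concentration-response curve combining IC50 with minimum and maximum inhibition.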
# 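Wherever drug sensitivity score (DSS), single drug with vehicle is given: 384-well screen with five concentrations per compound and a luminescence read-out, DSS computed from the fitted dose-response curve combining IC50 with minimum and maximum inhibition.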
SMILES,drug sensitivity score [1],drug sensitivity score [2],drug sensitivity score [3],drug sensitivity score [4],drug sensitivity score [5],drug sensitivity score [6]
N#CC(c1ccnc(OCc2ccc(CN3CCOCC3)cc2)n1)c1nc2ccccc2s1 (stereo unspecified) [Bentamapimod],2.1,3.4,3.1,2.7,3.3,3.7
C[C@@H](Oc1cc(-c2cnn(C3CCNCC3)c2)cnc1N)c1c(Cl)ccc(F)c1Cl [Crizotinib],0,0,0.2,0.7,0.2,2.3
COc1cccc2c1C(=O)c1c(O)c3c(c(O)c1C2=O)C[C@@](O)(C(=O)CO)C[C@@H]3O[C@H]1C[C@H](N)[C@H](O)[C@H](C)O1 [Doxorubicin],20.4,8.1,5.8,21.7,7.9,21
CCS(=O)(=O)c1cccc(-c2cc(C(=O)NC3CCN(C)CC3)c(C)c3[nH]c4ncc(C)cc4c23)c1,17.4,9.1,7.5,16.9,8.9,22.5
C=CCN(/C=C1/C(=O)O[C@H](COC)[C@@]2(C)C1=C(O)C(=O)C1=C2[C@H](OC(C)=O)C[C@]2(C)C(=O)CC[C@@H]12)CC=C [Sonolisib],0.2,0.2,0,0.3,0,0
C=C(c1ccc(C(=O)O)cc1)c1cc2c(cc1C)C(C)(C)CCC2(C)C [Bexarotene],11.2,0,2.4,4.5,0.4,4.8
COc1ccc2[nH]cc(/C=C3\C(=O)Nc4ccc(NC(=O)CCN5CCCCC5)cc43)c2c1,7.9,7.6,9,13.7,7.6,10.4
COc1cc2/c(=N/c3ccc(Br)cc3F)nc[nH]c2cc1OCC1CCN(C)CC1 [Vandetanib],0.1,0,0,0,0.1,0
CC1(C)CCC(c2ccc(Cl)cc2)=C(CN2CCN(c3ccc(C(=O)NS(=O)(=O)c4ccc(N[C@H](CCN5CCOCC5)CSc5ccccc5)c(S(=O)(=O)C(F)(F)F)c4)cc3)CC2)C1 [Navitoclax],13.2,0,2.1,20.8,0,19.1
COc1cccc2c1C(=O)c1c(O)c3c(c(O)c1C2=O)C[C@@](O)(C(=O)CO)C[C@@H]3O[C@H]1C[C@H](N)[C@@H](O)[C@H](C)O1 [Epirubicin],24.3,7.8,5.8,24.8,8.3,25.2
CNC(=O)c1ccc(N2C(=S)N(c3cnc(C#N)c(C(F)(F)F)c3)C(=O)C23CCC3)cc1F [Apalutamide],0.4,0,0,0.3,0,0
CCNC(=O)c1noc(-c2cc(C(C)C)c(O)cc2O)c1-c1ccc(CN2CCOCC2)cc1 [Luminespib],15.2,22.3,26.3,16.2,23,22.5
COc1cc(C(=O)O)ccc1NC(=O)[C@@H]1N[C@@H](CC(C)(C)C)[C@](C#N)(c2ccc(Cl)cc2F)[C@H]1c1cccc(Cl)c1F [Idasanutlin],25.7,0,3.1,30.9,0.2,35.2
Nc1cc(C(F)(F)F)c(-c2cc(N3CCOCC3)nc(N3CCOCC3)n2)cn1 [Buparlisib],16.9,13,12.1,17.6,14,18.5
CONC(=O)c1ccccc1Nc1cc(Nc2cc(C)nn2C(C)C)ncc1Cl,0,0,0,0.6,0,0
Cc1c(-c2ccc(N3CCc4cccc(C(=O)Nc5nc6ccccc6s5)c4C3)nc2C(=O)O)cnn1CC12CC3CC(CC(C3)C1)C2,7.8,0,0,9.4,0,6.9
FC(F)(F)c1ccc(/C=C/c2nc(COc3ccc(CCCCn4ccnn4)cc3)co2)cc1 [Mubritinib],0,4.2,2.2,4.3,3,1.1
COc1cc(N2CCC(N3CCN(C)CC3)CC2)ccc1Nc1ncnc(Nc2ccccc2S(=O)(=O)C(C)C)n1,3.2,6.3,5.9,14.5,7,3.6
CCN1CCN(Cc2ccc(Nc3ncc(F)c(-c4cc(F)c5nc(C)n(C(C)C)c5c4)n3)nc2)CC1 [Abemaciclib],9.6,7,7.9,10.7,7.9,8.6
CC(=O)c1cc2c(o1)C(=O)c1ccccc1C2=O [Napabucasin],20.3,17.3,16.7,17.2,17.6,20.4
CCn1c(-c2nonc2N)nc2cnc(Oc3cccc(NC(=O)c4ccc(OCCN5CCOCC5)cc4)c3)cc21,22.5,2.7,2.8,24.4,2.1,23.3
O=C1CCC(N2C(=O)c3ccccc3C2=O)C(=O)N1 (stereo unspecified) [Thalidomide],0,0,0,0,0,0
Cn1nccc1Nc1nccc(-c2ccn([C@H](CO)c3ccc(Cl)c(F)c3)c(=O)c2)n1 [Ravoxertinib],5.8,11,11.5,6.5,10.2,16.2

SMILES,drug sensitivity score [1],drug sensitivity score [2],drug sensitivity score [3],drug sensitivity score [4],drug sensitivity score [5],drug sensitivity score [6]
CS(=O)(=O)c1ccc(C(=O)Nc2ccc(Cl)c(-c3ccccn3)c2)c(Cl)c1 [Vismodegib],0,0,0,0,0,0
CO[C@@H]1[C@H](N(C)C(=O)c2ccccc2)C[C@H]2O[C@]1(C)n1c3ccccc3c3c4c(c5c6ccccc6n2c5c31)C(=O)NC4 [Midostaurin],22.4,12.7,9.5,23.2,10.7,23.8
Nc1ccn([C@@H]2O[C@H](CO)[C@@H](O)C2(F)F)c(=O)n1 [Gemcitabine],26.7,17.5,16.1,24.2,17.6,30.1
CN(C)C[C@@H]1CCn2cc(c3ccccc32)C2=C(C(=O)NC2=O)c2cn(c3ccccc23)CCO1 [Ruboxistaurin],9,8.2,7.6,9,7.9,11.4
NC(=O)c1cccc(-c2cccc(OC(=O)NC3CCCCC3)c2)c1,0,0,0,0,0,0
Nc1nc(Cl)nc2c1ncn2[C@H]1C[C@H](O)[C@@H](CO)O1 [Cladribine],9.1,3.1,2.5,15.9,3.6,15.6
Cn1cnc2c(F)c(Nc3ccc(Br)cc3F)c(C(=O)NOCCO)cc21 [Binimetinib],0,14.2,12.3,0,13.5,0
COc1cc2c(Nc3ccc(Cl)c(Cl)c3F)ncnc2cc1OC[C@@H]1C[C@@H]2CN(C)C[C@@H]2C1 [Tesevatinib],0,0.9,2.9,0.1,1.5,0.6
CN1CCC(COc2cnc(-c3cccc(Cn4nc(-c5cccc(C#N)c5)ccc4=O)c3)nc2)CC1 [Tepotinib],0,0.2,0,0.2,0,0
CC[C@@H]1C(=O)N(C)c2cnc(Nc3ccc(C(=O)N[C@H]4CC[C@H](N5CCN(CC6CC6)CC5)CC4)cc3OC)nc2N1C(C)C [Volasertib],20.9,18.7,20.2,21.4,20,21.6
CCN(CC)CCNC(=O)c1c(C)[nH]c(/C=C2\C(=O)Nc3ccc(-c4csc(-c5ccccc5)n4)cc32)c1C [Amcasertib],9.3,7.5,10.9,15,9.3,12.9
COc1cc(OC)cc(N(CCNC(C)C)c2ccc3ncc(-c4cnn(C)c4)nc3c2)c1 [Erdafitinib],0,0,0,0.4,0,3.6
O=C(Nc1ccc2[nH]nc(-c3ccncc3)c2c1)[C@@H]1CCN(CC(=O)N2CCN(c3ccc(-c4ncccn4)cc3)CC2)C1,0.8,22.9,22.5,3.5,23.6,4.7
C[C@@H](Nc1cc(F)cc(F)c1)c1cc(C(=O)N(C)C)cc2c(=O)cc(N3CCOCC3)oc12,1.1,0,0.2,0,0,0.8
Nc1ccn([C@@H]2O[C@H](CO)[C@@H](O)[C@@H]2O)c(=O)n1 [Cytarabine],28.2,13.2,11.4,23,16.2,30
N#Cc1ccc(C(c2ccc(C#N)cc2)n2cncn2)cc1 [Letrozole],0,0,0,0,0,0
O=C1Cc2cc(C(=O)NC3C[C@H]4CC[C@@H](C3)N4S(=O)(=O)CC3CCN(CCCC(F)(F)F)CC3)c(Cl)cc2N1 (stereo partly specified),0.1,0,0,0,0,0.5
O=c1sn(-c2cccc3ccccc23)c(=O)n1Cc1ccccc1 [Tideglusib],0,0,0,0,0,0
FC(F)c1nc2ccccc2n1-c1nc(N2CCOCC2)nc(N2CCOCC2)n1,8.9,10.7,10,7,10.2,10.3
CC(C)N(C[C@H]1O[C@@H](n2cnc3c(N)ncnc32)[C@H](O)[C@@H]1O)[C@H]1C[C@@H](CCc2nc3cc(C(C)(C)C)ccc3[nH]2)C1 [Pinometostat],0,0,0,0,0,0
C[C@H]1Oc2cc(cnc2N)-c2c(nn(C)c2C#N)CN(C)C(=O)c2ccc(F)cc21,1.1,0,0,0.7,0,0
O=C(CCCCCCC(=O)Nc1ccccc1)NO [Vorinostat],16.6,11,12.2,18.1,11.7,19.8
NC(=O)N1CCC(CC(=O)N2CCC([C@H]3c4ncc(Br)cc4CCc4cc(Cl)cc(Br)c43)CC2)CC1 [Lonafarnib],15.5,11.4,13.3,21.7,11.3,20.3

# From the supplement of paper PMC12009370
